Experimental data taken from paper PMC3584131.
Results are given in words; binding and its absence hold for the method and conditions named. In cells and extracts the contact can be indirect. Some results given as binding are weak or reduced against the parent protein; the word gives no strength. For some assays here: Tags and fused reporters may be left off the sequences shown.

Tests used:
[1] = target: T1, endogenous Numb (HEK-293A cells) (human (endogenous in HEK-293A)) (UniProt P49757); assay: co-IP; cytoplasmic lysates of transfected HEK-293A cells; immunoprecipitation with anti-Flag antibody, anti-Numb agarose or anti-myc agarose; washes in Buffer W (300 mM NaCl, 0.5% triton X-100); immunoblot
T1 sequence: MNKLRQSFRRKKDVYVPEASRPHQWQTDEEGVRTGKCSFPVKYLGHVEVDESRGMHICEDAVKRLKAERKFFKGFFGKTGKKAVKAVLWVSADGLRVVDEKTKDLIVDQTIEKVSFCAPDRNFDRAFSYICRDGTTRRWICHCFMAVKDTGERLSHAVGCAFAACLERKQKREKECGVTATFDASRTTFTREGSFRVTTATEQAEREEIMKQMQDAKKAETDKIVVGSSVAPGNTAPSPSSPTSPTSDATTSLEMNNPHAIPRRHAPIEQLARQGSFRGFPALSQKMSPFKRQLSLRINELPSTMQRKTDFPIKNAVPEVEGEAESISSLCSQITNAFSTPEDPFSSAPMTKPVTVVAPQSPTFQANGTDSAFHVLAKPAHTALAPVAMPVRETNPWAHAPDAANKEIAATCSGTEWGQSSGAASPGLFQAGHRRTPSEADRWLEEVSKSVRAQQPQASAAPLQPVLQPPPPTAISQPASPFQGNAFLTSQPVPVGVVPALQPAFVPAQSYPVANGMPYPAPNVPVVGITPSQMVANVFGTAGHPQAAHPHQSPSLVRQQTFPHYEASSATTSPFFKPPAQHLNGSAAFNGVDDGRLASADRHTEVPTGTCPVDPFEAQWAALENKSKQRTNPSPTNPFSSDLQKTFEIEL

[2] = target: endogenous Numb (CD133+/CD49f+ murine liver TISCs) (mouse (endogenous in murine TISCs)) (UniProt Q9QZS3); assay: co-IP; cytoplasmic lysates of transfected murine TISCs; immunoprecipitation with anti-Numb agarose or anti-myc antibody, 4°C; five washes in Buffer W (300 mM NaCl, 0.5% triton X-100); immunoblot
[3] = target: endogenous Numb (PIL-4 hepatoblasts) (UniProt Q9QZS3); assay: co-IP; endogenous, untagged proteins in lysates of PIL-4 hepatoblasts or HeLa cells; reciprocal immunoprecipitation with TBC1D15 antibody or anti-Numb agarose; immunoblot
[4] = target: T2, endogenous Numb (HeLa cells) (human (endogenous in HeLa)) (UniProt P49757); assay: as above
T2 sequence: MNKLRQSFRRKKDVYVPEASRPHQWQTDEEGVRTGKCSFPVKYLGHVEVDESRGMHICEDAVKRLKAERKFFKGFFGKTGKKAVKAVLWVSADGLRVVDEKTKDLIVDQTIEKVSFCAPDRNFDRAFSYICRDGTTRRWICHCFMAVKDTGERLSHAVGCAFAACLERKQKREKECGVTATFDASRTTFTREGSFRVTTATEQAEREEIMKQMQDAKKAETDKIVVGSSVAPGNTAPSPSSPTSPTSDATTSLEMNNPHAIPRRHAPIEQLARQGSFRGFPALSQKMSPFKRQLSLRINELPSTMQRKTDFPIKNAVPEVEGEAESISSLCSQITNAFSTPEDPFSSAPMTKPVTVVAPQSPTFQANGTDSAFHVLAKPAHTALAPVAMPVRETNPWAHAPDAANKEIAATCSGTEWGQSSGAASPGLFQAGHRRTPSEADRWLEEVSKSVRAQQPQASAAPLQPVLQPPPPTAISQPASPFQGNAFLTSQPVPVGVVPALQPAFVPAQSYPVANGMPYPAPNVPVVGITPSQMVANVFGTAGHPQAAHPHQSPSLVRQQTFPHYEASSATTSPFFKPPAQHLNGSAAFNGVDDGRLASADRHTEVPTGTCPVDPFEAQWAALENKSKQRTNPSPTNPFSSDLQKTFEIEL

Flag-p53 (human) = Flag-p53 (human) (UniProt P04637); assay: co-IP; cytoplasmic lysates of transfected HEK-293A cells; immunoprecipitation with anti-Flag antibody, anti-Numb agarose or anti-myc agarose; washes in Buffer W (300 mM NaCl, 0.5% triton X-100); immunoblot

B1: GFP-TBC-N1 (domain or fragment, UniProt Q9CXF4 2-158)
chain: AAAGVVSGKIIYEQEGVYIHSSCGKANDQDSLISGILRVLEKDAEVIVDWRPLDDALDSSSILCAGKDSSSVVEWTQAPKERAHRGSDQQSSYEAEWDMVTTVSFKKKPHTNGDAPGHRNGKSKWSFLFSLADLKSVKQSKEGMGWSYLVFCLKDDV
binding [1]: binds

B2: myc-TBC1D15 (expressed in TISCs) (protein, UniProt Q9CXF4 1-671)
chain: MAAAGVVSGKIIYEQEGVYIHSSCGKANDQDSLISGILRVLEKDAEVIVDWRPLDDALDSSSILCAGKDSSSVVEWTQAPKERAHRGSDQQSSYEAEWDMVTTVSFKKKPHTNGDAPGHRNGKSKWSFLFSLADLKSVKQSKEGMGWSYLVFCLKDDVMLPALHFHQGDSKLLIESLEKYVVLCESPQDSRTLLVNCQNKSLSQSFENLLDEPAYGLIQKIKKDPYTATMVGFSKVTNYIFDSLRGSDPSTHQRPPSEMADFLSDAIPGLKINQQEEPGFEVITRIDLGERPVVQRREPVSLEEWNKSLDPEGRLVAVESMKQKIFRGGLSHSLRKQAWKFLLGYFPWDSTKEERTQLQKQKTDEYFRMKLQWKSVSEAQEKRNSRLRDYRSLIEKDVNRTDRTNKFYEGQDNPGLILLHDILMTYCMYDFDLGYVQGMSDLLSPLLYVMENEVDAFWCFASYMDQMHQNFEEQMQGMKTQLIQLSTLLRLLDSGFCSYLESQDSGYLYFCFRWLLIRFKREFSFLDILRLWEVMWTELPCKNFHLLLCCAILESEKQQIMAKHYGFNEILKHINELSMKIDVEDILCKAEAISLQMAQCKELPQAVCEILGLQDSEITTPDSDTDENVGSPCPVSAFPSSTLPILAASEAKDDSPTQTLASPNACRLTPA
binding [2]: binds

B3: endogenous TBC1D15 (PIL-4 hepatoblasts) (protein, UniProt Q9CXF4 1-671)
chain: MAAAGVVSGKIIYEQEGVYIHSSCGKANDQDSLISGILRVLEKDAEVIVDWRPLDDALDSSSILCAGKDSSSVVEWTQAPKERAHRGSDQQSSYEAEWDMVTTVSFKKKPHTNGDAPGHRNGKSKWSFLFSLADLKSVKQSKEGMGWSYLVFCLKDDVMLPALHFHQGDSKLLIESLEKYVVLCESPQDSRTLLVNCQNKSLSQSFENLLDEPAYGLIQKIKKDPYTATMVGFSKVTNYIFDSLRGSDPSTHQRPPSEMADFLSDAIPGLKINQQEEPGFEVITRIDLGERPVVQRREPVSLEEWNKSLDPEGRLVAVESMKQKIFRGGLSHSLRKQAWKFLLGYFPWDSTKEERTQLQKQKTDEYFRMKLQWKSVSEAQEKRNSRLRDYRSLIEKDVNRTDRTNKFYEGQDNPGLILLHDILMTYCMYDFDLGYVQGMSDLLSPLLYVMENEVDAFWCFASYMDQMHQNFEEQMQGMKTQLIQLSTLLRLLDSGFCSYLESQDSGYLYFCFRWLLIRFKREFSFLDILRLWEVMWTELPCKNFHLLLCCAILESEKQQIMAKHYGFNEILKHINELSMKIDVEDILCKAEAISLQMAQCKELPQAVCEILGLQDSEITTPDSDTDENVGSPCPVSAFPSSTLPILAASEAKDDSPTQTLASPNACRLTPA
binding [3]: binds

B4: endogenous TBC1D15 (HeLa cells) (protein, UniProt Q8TC07 1-691)
chain: MAAAGVVSGKIIYEQEGVYIHSSCGKTNDQDGLISGILRVLEKDAEVIVDWRPLDDALDSSSILYARKDSSSVVEWTQAPKERGHRGSEHLNSYEAEWDMVNTVSFKRKPHTNGDAPSHRNGKSKWSFLFSLTDLKSIKQNKEGMGWSYLVFCLKDDVVLPALHFHQGDSKLLIESLEKYVVLCESPQDKRTLLVNCQNKSLSQSFENLLDEPAYGLIQAGLLDRRKLLWAIHHWKKIKKDPYTATMIGFSKVTNYIFDSLRGSDPSTHQRPPSEMADFLSDAIPGLKINQQEEPGFEVITRIDLGERPVVQRREPVSLEEWTKNIDSEGRILNVDNMKQMIFRGGLSHALRKQAWKFLLGYFPWDSTKEERTQLQKQKTDEYFRMKLQWKSISQEQEKRNSRLRDYRSLIEKDVNRTDRTNKFYEGQDNPGLILLHDILMTYCMYDFDLGYVQGMSDLLSPLLYVMENEVDAFWCFASYMDQMHQNFEEQMQGMKTQLIQLSTLLRLLDSGFCSYLESQDSGYLYFCFRWLLIRFKREFSFLDILRLWEVMWTELPCTNFHLLLCCAILESEKQQIMEKHYGFNEILKHINELSMKIDVEDILCKAEAISLQMVKCKELPQAVCEILGLQGSEVTTPDSDVGEDENVVMTPCPTSAFQSNALPTLSASGARNDSPTQIPVSSDVCRLTPA
binding [4]: binds

B5: myc-TBC1D15 (expressed in HEK-293A cells) (protein, UniProt Q9CXF4 1-671)
chain: MAAAGVVSGKIIYEQEGVYIHSSCGKANDQDSLISGILRVLEKDAEVIVDWRPLDDALDSSSILCAGKDSSSVVEWTQAPKERAHRGSDQQSSYEAEWDMVTTVSFKKKPHTNGDAPGHRNGKSKWSFLFSLADLKSVKQSKEGMGWSYLVFCLKDDVMLPALHFHQGDSKLLIESLEKYVVLCESPQDSRTLLVNCQNKSLSQSFENLLDEPAYGLIQKIKKDPYTATMVGFSKVTNYIFDSLRGSDPSTHQRPPSEMADFLSDAIPGLKINQQEEPGFEVITRIDLGERPVVQRREPVSLEEWNKSLDPEGRLVAVESMKQKIFRGGLSHSLRKQAWKFLLGYFPWDSTKEERTQLQKQKTDEYFRMKLQWKSVSEAQEKRNSRLRDYRSLIEKDVNRTDRTNKFYEGQDNPGLILLHDILMTYCMYDFDLGYVQGMSDLLSPLLYVMENEVDAFWCFASYMDQMHQNFEEQMQGMKTQLIQLSTLLRLLDSGFCSYLESQDSGYLYFCFRWLLIRFKREFSFLDILRLWEVMWTELPCKNFHLLLCCAILESEKQQIMAKHYGFNEILKHINELSMKIDVEDILCKAEAISLQMAQCKELPQAVCEILGLQDSEITTPDSDTDENVGSPCPVSAFPSSTLPILAASEAKDDSPTQTLASPNACRLTPA
binding (Flag-p53 (human)): no binding
